This is one part of the list.
Experiments:
Assay in all cases: glycan array binding signal (z-score within array); higher = stronger binding
Conditions in all cases: glycan notation: IUPAC condensed, linker removed
[1] = target: Neu5Ac(a2-6)GlcNAc(b1-4)GlcNAc
Summary of the method: (§1)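 Arrays were curated from the Consortium for Functional Glycomics database, 3228 in total, and kept only where the protein sequence was available. Binding is expressed as a within-array Z-score. This score was averaged across arrays of the same protein sequence at different concentrations or buffers and across linkers, and negative values can be read as non-binding.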

[2] = target: Neu5Ac(a2-6)GlcNAc(b1-4)GlcNAc(b1-4)GlcNAc
Summary of the method: as §1

Neu5Ac(a2-8)Neu5Ac = target: Neu5Ac(a2-8)Neu5Ac
Summary of the method: as §1

[3] = target: Neu5Ac(a2-8)Neu5Ac(a2-3)Gal(b1-3)GalNAc(b1-4)[Neu5Ac(a2-3)]Gal(b1-4)Glc
Summary of the method: as §1

[4] = target: Neu5Ac(a2-8)Neu5Ac(a2-3)Gal(b1-3)GalNAc(b1-4)[Neu5Ac(a2-8)Neu5Ac(a2-3)]Gal(b1-4)Glc
Summary of the method: as §1

[5] = target: Neu5Ac(a2-8)Neu5Ac(a2-3)Gal(b1-4)Glc
Summary of the method: as §1

[6] = target: Neu5Ac(a2-8)Neu5Ac(a2-3)Gal(b1-4)GlcNAc
Summary of the method: as §1

[7] = target: Neu5Ac(a2-8)Neu5Ac(a2-3)[Gal(b1-3)GalNAc(b1-4)]Gal(b1-4)Glc
Summary of the method: as §1

[8] = target: Neu5Ac(a2-8)Neu5Ac(a2-3)[GalNAc(b1-4)]Gal(b1-4)Glc
Summary of the method: as §1

[9] = target: Neu5Ac(a2-8)Neu5Ac(a2-8)Neu5Ac
Summary of the method: as §1

[10] = target: Neu5Ac(a2-8)Neu5Ac(a2-8)Neu5Ac(a2-3)Gal(b1-4)Glc
Summary of the method: as §1

[11] = target: Neu5Ac(a2-8)Neu5Ac(a2-8)Neu5Ac(a2-3)[Gal(b1-3)GalNAc(b1-4)]Gal(b1-4)Glc
Summary of the method: as §1

[12] = target: Neu5Ac(a2-8)Neu5Ac(a2-8)Neu5Ac(a2-3)[GalNAc(b1-4)]Gal(b1-4)Glc
Summary of the method: as §1

[13] = target: Neu5Ac(a2-8)Neu5Ac(a2-8)Neu5Ac(a2-8)Neu5Ac(a2-3)[GalNAc(b1-4)]Gal(b1-4)Glc
Summary of the method: as §1

[14] = target: Neu5Ac(a2-8)Neu5Gc(a2-3)Gal(b1-4)GlcNAc
Summary of the method: as §1

[15] = target: Neu5Ac(b2-6)Gal(b1-4)GlcNAc
Summary of the method: as §1

Neu5Ac(b2-6)GalNAc = target: Neu5Ac(b2-6)GalNAc
Summary of the method: as §1

[16] = target: Neu5Ac9Ac(a2-3)Gal(b1-3)GlcNAc
Summary of the method: as §1

[17] = target: Neu5Ac9Ac(a2-3)Gal(b1-4)GlcNAc
Summary of the method: as §1

[18] = target: Neu5Ac9Ac(a2-6)Gal(b1-4)GlcNAc
Summary of the method: as §1

[19] = target: Neu5Gc(a2-3)Gal(b1-3)GlcNAc
Summary of the method: as §1

[20] = target: Neu5Gc(a2-3)Gal(b1-3)[Fuc(a1-4)]GlcNAc
Summary of the method: as §1

Neu5Gc(a2-3)Gal(b1-4)Glc = target: Neu5Gc(a2-3)Gal(b1-4)Glc
Summary of the method: as §1

[21] = target: Neu5Gc(a2-3)Gal(b1-4)GlcNAc
Summary of the method: as §1

[22] = target: Neu5Gc(a2-3)Gal(b1-4)GlcNAc(b1-3)Gal(b1-4)GlcNAc(b1-2)Man(a1-3)[Neu5Gc(a2-3)Gal(b1-4)GlcNAc(b1-3)Gal(b1-4)GlcNAc(b1-2)Man(a1-6)]Man(b1-4)GlcNAc(b1-4)GlcNAc
Summary of the method: as §1

[23] = target: Neu5Gc(a2-3)Gal(b1-4)[Fuc(a1-3)]GlcNAc
Summary of the method: as §1

[24] = target: Neu5Gc(a2-6)Gal(b1-4)GlcNAc
Summary of the method: as §1

Neu5Gc(a2-6)GalNAc = target: Neu5Gc(a2-6)GalNAc
Summary of the method: as §1

[25] = target: Neu5Gc(a2-8)Neu5Ac(a2-3)Gal(b1-4)GlcNAc
Summary of the method: as §1

[26] = target: Neu5Gc(a2-8)Neu5Gc(a2-3)Gal(b1-4)GlcNAc
Summary of the method: as §1

[27] = target: Neu5Gc(a2-8)Neu5Gc(a2-3)Gal(b1-4)GlcNAc(b1-3)Gal(b1-4)GlcNAc
Summary of the method: as §1

[28] = target: Neu5Gc(a2-8)Neu5Gc(a2-6)Gal(b1-4)GlcNAc
Summary of the method: as §1

[29] = target: Neu5Gc(b2-6)Gal(b1-4)GlcNAc
Summary of the method: as §1

B1: Als3-41 (Candida albicans) (protein)
chain: KTITGVFNSFNSLTWSNAATYNYKGPGTPTWNAVLGWSLDGTSASPGDTFTLNMPCVFKFTTSQTSVDLTAHGVKYATCQFQAGEEFMTFSTLTCTVSNTLTPSIKALGTVTLPLAFNVGGTGSSVDLEDSKCFTAGTNTVTFNDGGKKISINVDFERSNVDPKGYLTDSRVIPSLNKVSTLFVAPQCANGYTSGTMGFANTYGDVQIDCSNIHVGITKGLNDWNYPVSSESFSYTKTCSSNGIFITYKNVPAGYRPFVDAYISATDVNSYTLSYANEYTCAGGYWQRAPFTLRWTGYRNSDAGSNGIVIVATTRTVTDSTTAVTTLPFDPNRDKTKTIEILKPIPTTTITTSYVGVTTSYLTKTAPIGETATVIVD
glycan array binding signal (z-score) [1]: -0.311
glycan array binding signal (z-score) [2]: -0.212
glycan array binding signal (z-score) (Neu5Ac(a2-8)Neu5Ac): -0.128
glycan array binding signal (z-score) [3]: -0.246
glycan array binding signal (z-score) [4]: -0.268
glycan array binding signal (z-score) [5]: -0.292
glycan array binding signal (z-score) [6]: -0.333
glycan array binding signal (z-score) [7]: -0.006
glycan array binding signal (z-score) [8]: -0.239
glycan array binding signal (z-score) [9]: -0.29
glycan array binding signal (z-score) [10]: -0.304
glycan array binding signal (z-score) [11]: 0.009
glycan array binding signal (z-score) [12]: -0.253
glycan array binding signal (z-score) [13]: -0.297
glycan array binding signal (z-score) [14]: -0.286
glycan array binding signal (z-score) [15]: -0.251
glycan array binding signal (z-score) (Neu5Ac(b2-6)GalNAc): -0.297
glycan array binding signal (z-score) [16]: -0.259
glycan array binding signal (z-score) [17]: -0.38
glycan array binding signal (z-score) [18]: -0.039
glycan array binding signal (z-score) [19]: -0.189
glycan array binding signal (z-score) [20]: 0.009
glycan array binding signal (z-score) (Neu5Gc(a2-3)Gal(b1-4)Glc): 0.09
glycan array binding signal (z-score) [21]: -0.271
glycan array binding signal (z-score) [22]: -0.118
glycan array binding signal (z-score) [23]: -0.073
glycan array binding signal (z-score) [24]: 0.561
glycan array binding signal (z-score) (Neu5Gc(a2-6)GalNAc): -0.133
glycan array binding signal (z-score) [25]: -0.106
glycan array binding signal (z-score) [26]: -0.268
glycan array binding signal (z-score) [27]: -0.322
glycan array binding signal (z-score) [28]: -0.217
glycan array binding signal (z-score) [29]: -0.289
